# Measurements as given in the supplement of paper PMC9334596.
# Where “and” joins values, the source holds several entries; their conditions need not be identical. Identical values can stand only once. In all, about 5,300 compounds were measured (“PER2::LUC luminescence relative to vehicle control”: median about 0.96, highest 2% from about 1.3 on). Some of the results follow.
# Tested on: mPer2Luc MEF
# Assay: PER2::LUC luminescence relative to vehicle control (fold of vehicle); higher = higher PER2::LUC reporter signal
# Settings: 10 µM
# Summary of the method: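 In 384-well plates, ~3000 mPer2Luc reporter mouse embryonic fibroblasts per well were cultured in DMEM with 10% FBS at 37 °C and 5% CO2 for 48 h before compounds from commercial libraries were added at 10 μM. ONE-Glo luciferase readings were taken 24 h and 30 h after treatment. Each value is PER2::LUC luminescence given as fold of vehicle control.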
SMILES,PER2::LUC luminescence (time after treatment 24 h),PER2::LUC luminescence (time after treatment 30 h)
CC(C)c1ccc2oc3nc(N)c(C(=O)O)cc3c(=O)c2c1,1.07,1.49
CC1(C)S[C@@H]2[C@H](NC(=O)[C@H](NC(=O)N3CCNC3=O)c3ccccc3)C(=O)N2[C@H]1C(=O)O,1.21,1.13
COC(=O)Nc1nc2cc(C(=O)c3ccccc3)ccc2[nH]1,0.577,0.605
COc1ccccc1-c1nc(-c2ccccn2)no1,0.948,0.943
C[C@@H]1O[C@@H](OC[C@H]2O[C@@H](Oc3cc(O)c4c(c3)O[C@H](c3ccc(O)cc3)CC4=O)[C@H](O)[C@@H](O)[C@@H]2O)[C@H](O)[C@H](O)[C@H]1O,0.957,0.972
O=C1[C@H](Cc2ccc(O)cc2)N2C(=O)CCN(C(=O)NCc3ccccc3)[C@H]2CN1Cc1cccc2ccccc12,0.412,0.574
CCCCCCc1ccc(O)cc1O.Nc1c2ccccc2nc2ccccc12,0.559,0.691
O=C(O)c1cccnc1Nc1cccc(C(F)(F)F)c1,1.07,1.15
Cc1oncc1C(=O)Nc1ccc(C(F)(F)F)cc1,1.35,1.82
COc1ccc(C(Cl)=C(c2ccc(OC)cc2)c2ccc(OC)cc2)cc1,1.03,1.06
CC1CC(OC(=O)C(O)c2ccccc2)CC(C)(C)C1 (configuration not stated),0.817,0.82
CCOC(=O)[C@H](CCc1ccccc1)N[C@@H](C)C(=O)N1Cc2ccccc2C[C@H]1C(=O)O,0.572,0.912
CC(CCc1ccccc1)NCC(O)c1ccc(O)c(C(N)=O)c1 (configuration not stated),0.395,0.828
O=C(O)c1cccc(O)c1O,0.949,0.904
Cc1cn([C@H]2O[C@@H](CO)[C@H](O)[C@H]2F)c(=O)[nH]c1=O,1.01,1.02
Cc1cn(C2C=CC(CO)O2)c(=O)[nH]c1=O (configuration not stated),1.15,1.07
Cc1cc(NC(=O)Nc2ccc(N(C)C)cc2)c2cc(F)cc(F)c2n1,0.814,0.87
Cc1onc(-c2c(Cl)cccc2Cl)c1C(=O)N[C@@H]1C(=O)N2[C@@H]1SC(C)(C)[C@@H]2C(=O)O,1.12,0.94
COc1cc2ncnc(N(C)c3cccc(Br)c3)c2cc1OC,0.83,0.741
C[C@@]1(F)[C@H](O)[C@@H](CO)O[C@H]1n1ccc(=O)[nH]c1=O,0.965,0.937
Cn1cc(-c2ccc3ncc(Cc4ccc5ncccc5c4)n3n2)cn1,1.08,1.04

SMILES,PER2::LUC luminescence (time after treatment 24 h),PER2::LUC luminescence (time after treatment 30 h)
Cc1cc(O)c(C=O)c2c1C(=O)Oc1c(C)c(O)c3c(c1O2)C(O)OC3=O (configuration not stated),0.973,1.02
CN1C(C)(C)CCCC1(C)C,0.952 and 0.86,0.875 and 0.798
CC[N+](C)(C)Cc1ccccc1Br,0.548,0.891
CCCCCCCCc1ccc(-c2ccc(C(=O)O)cc2)cc1,1.18,1.05
C[N+](C)(C)CCCCCC[N+](C)(C)C,1.08 and 0.915 and 1.01,0.904 and 1.05 and 0.777
CC1C(=O)OC2C(O)C34C5CC(C(C)(C)C)C36C(OC(=O)C6O)OC4(C(=O)O5)C12O (configuration not stated),1.08,0.89
O=c1ccc2ccc(OCCCCN3CCN(c4cccc5sccc45)CC3)cc2[nH]1,0.628,0.637
CC(C)Cc1sc(N)nc1-c1ccc(P(=O)(O)O)o1,1.07,0.954
CCCCCC[C@@H]([C@@H](C)O)n1cnc2c(N)ncnc21,1.24 and 0.841 and 0.788,0.793 and 0.805 and 0.851
CN(C)/N=N/c1[nH]cnc1C(N)=O,1.09 and 0.87,1.01 and 0.893
O=c1ccc2ccc(O)cc2o1,0.893,0.906
COc1ccc([C@@H]2CC(=O)c3c(O)cc(O[C@@H]4O[C@H](CO[C@@H]5O[C@@H](C)[C@H](O)[C@@H](O)[C@H]5O)[C@@H](O)[C@H](O)[C@H]4O)cc3O2)cc1O,0.987,0.871
COc1c2ccoc2c(OC)c2oc(=O)ccc12,1.01,1.03
CC(N)=NCCCC[C@H](N)C(=O)O,1.05,1.09
O=c1cc(N2CCOCC2)oc2c(-c3cccc4c3sc3ccccc34)cccc12,0.577 and 1.08,0.579 and 1.09
Nc1ncc2c(n1)CC(c1ccco1)CC2=O (configuration not stated),0.997,1.07
CC(C)(C(=O)O)c1ccc(C(O)CCCN2CCC(C(O)(c3ccccc3)c3ccccc3)CC2)cc1 (configuration not stated),1.07,1.03
CCCCc1nc(-c2ccc(OCCCN(CC)CC)cc2)cn1-c1ccc(Oc2ccc(Cl)cc2)cc1,0.213,0.268
Cc1cc(C(C)(C)C)c(O)c(C)c1CC1=NCCN1,1.01,0.903
NC(Cc1ccc(Cl)cc1)C(=O)O (configuration not stated),1.04 and 1.05,1.06 and 0.924
